The results in this text go back to ChEMBL document CHEMBL4888484, “Replenishing the malaria drug discovery pipeline: Screening and hit evaluation of the MMV Hit Generation Library 1 (HGL1) against asexual blood stage Plasmodium falciparum ,using a nano luciferase reporter read-out” (2022).

As usually defined, the % Inhibition is the change of the read-out against control, counted positive when it falls.

Hit rate of the full screen: of about 150,000 compounds, about 540 (0.36%) showed an effect of 50% or more. The list shows a part of the results.

For the assay, the system named is Plasmodium falciparum. Put plainly: Primary screen in NF54 nanoGlo assay, in single point, at 2uM, 72h; a lower Z score goes with more inhibition. The class given is functional, Erythrocyte. Conditions: timepoint 72 hour.
`O=C(c1cncc(-c2ccc(Cl)cc2)c1)N1CC[C@@](O)(C(F)(F)F)C1`: the “% Inhibition” value is -17% and the Z score turned out to be 2.35.

For the compound `Nc1cc(-c2cncc(C(=O)N3CCOCC3)n2)c2cc[nH]c2n1`, the “% Inhibition” value is -13% and the Z score amounted to 1.29.

Consider `CC(C)CCn1c2c(c(=O)[nH]c1=O)[C@H](C(=O)Nc1ccc(F)c(F)c1F)CC(=O)N2`, for which the “% Inhibition” value was 9% and the Z score is recorded as -1.27.

As to `COc1ccc(-c2cc3cc(C)[nH]c(=O)n3c2)cc1`, the “% Inhibition” value is on record as -3% and the Z score turned out to be 0.39.

In the case of `CC(C)[C@H](NS(=O)(=O)Cc1ccccc1)[C@H](O)C(F)(F)F`, the “% Inhibition” value was -19% and the Z score worked out at 1.57.

Take `C[C@H]1Cc2ccccc2N1CCC(=O)Nc1sccc1C#N`: the “% Inhibition” value is on record as -10% and the Z score came to 1.42.

With `COc1cccc(-c2cnc(-c3ccc(CNC(=O)c4c(F)cccc4F)cc3)[nH]2)c1`, the “% Inhibition” value worked out at 5% and the Z score is on record as -0.78.

On to `O[C@@H](CN1CC(O)(c2ccc(Cl)cc2)C1)C(F)(F)F`, for which the “% Inhibition” value is on record as -1% and the Z score was 0.07.

With `Cn1ccnc1C(NC(=O)Nc1nc2c(s1)CCC2(C)C)c1nccn1C`, the “% Inhibition” value is recorded as -5% and the Z score is listed as 0.46.

For `Cn1nc(N2CC[C@H](NC(=O)C3CCCCC3)C2)ccc1=O`, the “% Inhibition” value is reported as -6% and the Z score is listed as 0.81.

As to `CC1CC(NC(=O)c2cn(C(C)C)cn2)C(=O)N1c1ccccc1` (centres undefined), the “% Inhibition” value was -2% and the Z score came out at 0.33.

Turning to `COc1cccc(CN2C[C@@H](n3cnnn3)C[C@H]2C(=O)NCc2ccc(C)cc2)c1`, the “% Inhibition” value was 5% and the Z score is given as -0.58.

As to `COCCN(Cc1nnc(C(C)C)o1)CC(F)(F)F`, the “% Inhibition” value is -10% and the Z score is given as 1.24.

Regarding `CCC[C@H](Nc1nc(N)ncc1CC)C(=O)NC`, the “% Inhibition” value is on record as -7% and the Z score was found to be 0.82.

Consider `CCOC(=O)N1CCC(n2c(=O)[nH]c3ccc(F)cc3c2=O)CC1`, for which the “% Inhibition” value is -10% and the Z score came out at 1.31.

In the case of `CC1CC(C(=O)NCC2CCCCC2)c2ccccc2N1` (centres undefined), the “% Inhibition” value turned out to be 3% and the Z score is listed as -0.43.

As for `O=C(N[C@H]1CCCc2ccccc21)c1cc(COc2ccc3ncccc3c2)on1`, the “% Inhibition” value was -7% and the Z score is 0.9.

As to `CCCn1nccc1C(=O)NCc1nnc(CC)o1`, the “% Inhibition” value was -3% and the Z score is on record as 0.49.

Take `c1ccc(-c2noc(NC[C@H]3CCN(c4ccccc4)C3)n2)cc1`: the “% Inhibition” value was -9% and the Z score came out at 1.1.

In the case of `O=C(CC[C@@H]1CCCN2CCCC[C@H]12)NC1(CO)CCCCC1`, the “% Inhibition” value is given as -10% and the Z score is given as 1.66.

Turning to `CCc1nccn1CCC(=O)N1CC[C@@]2(O)CCCC[C@H]2C1`, the “% Inhibition” value is reported as -9% and the Z score amounted to 1.39.

`CC1CN(C(=O)C2CN(S(C)(=O)=O)C2)CC(C)O1` (centres undefined): the “% Inhibition” value is -9% and the Z score amounted to 1.39.

As to `Cc1nnc(-c2ccccc2C(=O)Nc2cccc(F)c2)o1`, the “% Inhibition” value stood at 8% and the Z score is -1.26.

As to `COc1cc(CN2CCCN(c3ccc(NC(=O)COc4ccc(Cl)cc4)cn3)CC2)cc(OC)c1`, the “% Inhibition” value was -18% and the Z score amounted to 2.3.

In the case of `C=CCN(CCC)C(=O)c1sc(C)nc1C`, the “% Inhibition” value is listed as -13% and the Z score amounted to 1.88.

Take `COC(=O)CC1(NC(=O)c2ccnc(N(C)C)c2)CCC1`: the “% Inhibition” value stood at 27% and the Z score was -3.03.

As for `O=C(N[C@@H]1CC[C@H]2CCOc3ccccc3C(=O)N3CCN(C4CCC(F)(F)CC4)C[C@H]3C(=O)NC[C@H]1O2)C1CCOCC1`, the “% Inhibition” value is reported as 29% and the Z score is listed as -3.41.

On to `CC[C@@H](C(=O)NCCCNc1cccnc1)n1cccn1`, for which the “% Inhibition” value was -5% and the Z score is 1.06.

Take `Cn1ncc(Cl)c1C(=O)N[C@H](c1cccs1)C1(CO)CCC1`: the “% Inhibition” value was -5% and the Z score is recorded as 0.67.

For `Cc1occc1C(=O)N1CCc2[nH]nc(C(=O)NCc3ccc(F)cc3)c2C1`, the “% Inhibition” value is recorded as -5% and the Z score was 0.95.

Turning to `COc1ccccc1Cc1nnc2n1CCCC2`, the “% Inhibition” value came to 35% and the Z score is -4.73.

Consider `Cc1cc(C)n(CC(=O)N(C)[C@H]2CCc3nnc(C)n3CC2)n1`, for which the “% Inhibition” value is recorded as -11% and the Z score was determined as 1.65.

With `O=C(c1ccccc1)N1CC(COc2ccccc2)OC(c2ccccc2O)O1` (centres undefined), the “% Inhibition” value was -24% and the Z score is given as 2.59.

Regarding `CCC(=O)NC[C@@]12CCCC=C1N(C)C(=O)CC2`, the “% Inhibition” value was 11% and the Z score is reported as -1.56.

On to `Cc1nnc2n1[C@@H](C)CN(C(=O)CCn1cnc3ccccc3c1=O)C2`, for which the “% Inhibition” value is reported as -8% and the Z score amounted to 1.39.

On to `C[C@H]1CCCCN1C(=O)Cn1cc(C(=O)c2ccco2)c2ccccc21`, for which the “% Inhibition” value is -14% and the Z score is recorded as 1.88.

`C=C(C)C[C@H](C)C(=O)Nc1cnc2nccn2c1`: the “% Inhibition” value is -8% and the Z score is listed as 1.34.

Consider `Cc1cnc(CCNC(=O)C2CC23CCOc2ccccc23)s1` (centres undefined), for which the “% Inhibition” value is -3% and the Z score worked out at 0.38.

On to `Cn1ncc2c1NC(=O)C[C@@H]2c1ccccc1`, for which the “% Inhibition” value was 34% and the Z score was -3.88.

For the compound `N#Cc1ncn(-c2nc(-c3cccc(Cl)c3)nc3c2CCCC3)n1`, the “% Inhibition” value is listed as -6% and the Z score was found to be 0.81.

Consider `CCc1ccc2nc(C)cc(C(=O)N3CCN(c4ccccc4)C(=O)C3)c2c1`, for which the “% Inhibition” value is -8% and the Z score was 1.49.

`CCCC[C@H]1CN(c2cccc(C)c2)C(=O)CN1C(=O)c1cc(C2CC2)n[nH]1`: the “% Inhibition” value is -13% and the Z score is 2.32.
